Laboratory results as given in the supplement of paper PMC10369915.
Some of the results follow. No stated cut-off is given here; in the data, active = 3.2 or more and inactive = the rest. Most of these values are background signal.

Each binder was assayed against SHP2 C-SH2 domain E139D (assay: enrichment score (SH2-bound / input frequency) (ratio); bacterial display of known human phosphotyrosine sites (pTyr-Var adds point mutants) read by sequencing; higher = stronger binding; tyrosines were phosphorylated by kinases first). Conditions: peptide library: Human pTyr.
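Further: displayed peptides selected on beads carrying the immobilized SH2 domain, with library peptides lacking any tyrosine serving as negative controls.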

Enrichment score, inactive:
VKSGFEGYVELPPIE [IL3RB_HUMAN_766] 0.703, AFEIIDQYFSGDDID [IMA4_HUMAN_484] 1.49, TTEAPGEYFFSDGIR [IMDH2_HUMAN_400] 0.592, VFLRCINYVFFPSLK [INAR1_HUMAN_466] 2.74, DGGSDQNYDIVTIGA [INP4A_HUMAN_355] 0.917, FGMTRDIYETDAARK [INSR_HUMAN_1185_YA] 0.668, DIAETDAYRKGGKGL [INSR_HUMAN_1190_YA] 1.03, SLGFKRSYEEHIPAT [INSR_HUMAN_1355_YA] 0.826, ALKIRRSYALVSLSF [INSR_HUMAN_401_YA] 1.52, YASSNPEYLSASDVF [INSR_HUMAN_999] 0.484, FGMTRDVYETDAARK [INSRR_HUMAN_1141_YA] 0.836, DVYETDYYRKGGKGL [INSRR_HUMAN_1146] 0.81, SSEDLSAYASISFQK [IRS1_HUMAN_1229] 1.71, TLHTDDGYMPMSPGV [IRS1_HUMAN_612] 0.628, VPSSRGDYMTMQMSC [IRS1_HUMAN_989] 0.982, GFQNGLNYIAIDVRE [IRS2_HUMAN_1253] 0.791, NLGADDGYMPMTPGA [IRS2_HUMAN_653] 0.546, MELQSPEYKLSKLRT [ALK_HUMAN_1078] 0.676

The binders below were run against SHP2 C-SH2 domain wild-type in the same assay as above. Conditions: peptide library: Human pTyr.

Enrichment score, inactive:
VKSGFEGYVELPPIE [IL3RB_HUMAN_766] 0.946, AFEIIDQYFSGDDID [IMA4_HUMAN_484] 1.37, TTEAPGEYFFSDGIR [IMDH2_HUMAN_400] 0.263, VFLRCINYVFFPSLK [INAR1_HUMAN_466] 2.6, DGGSDQNYDIVTIGA [INP4A_HUMAN_355] 0.991, FGMTRDIYETDAARK [INSR_HUMAN_1185_YA] 0.775, DIAETDAYRKGGKGL [INSR_HUMAN_1190_YA] 0.681, SLGFKRSYEEHIPAT [INSR_HUMAN_1355_YA] 0.747, ALKIRRSYALVSLSF [INSR_HUMAN_401_YA] 1.37, YASSNPEYLSASDVF [INSR_HUMAN_999] 0.443, FGMTRDVYETDAARK [INSRR_HUMAN_1141_YA] 0.799, DVYETDYYRKGGKGL [INSRR_HUMAN_1146] 0.634, SSEDLSAYASISFQK [IRS1_HUMAN_1229] 3.16, TLHTDDGYMPMSPGV [IRS1_HUMAN_612] 0.453, VPSSRGDYMTMQMSC [IRS1_HUMAN_989] 0.869, GFQNGLNYIAIDVRE [IRS2_HUMAN_1253] 0.839, NLGADDGYMPMTPGA [IRS2_HUMAN_653] 0.432, MELQSPEYKLSKLRT [ALK_HUMAN_1078] 0.602

Each binder was assayed against SHP2 N-SH2 domain L43F in the same assay as above. Conditions: peptide library: Human pTyr.

Enrichment score, inactive:
VKSGFEGYVELPPIE [IL3RB_HUMAN_766] 0.817, AFEIIDQYFSGDDID [IMA4_HUMAN_484] 0.916, TTEAPGEYFFSDGIR [IMDH2_HUMAN_400] 0.384, VFLRCINYVFFPSLK [INAR1_HUMAN_466] 2.23, DGGSDQNYDIVTIGA [INP4A_HUMAN_355] 0.779, FGMTRDIYETDAARK [INSR_HUMAN_1185_YA] 0.769, DIAETDAYRKGGKGL [INSR_HUMAN_1190_YA] 0.784, SLGFKRSYEEHIPAT [INSR_HUMAN_1355_YA] 0.822, ALKIRRSYALVSLSF [INSR_HUMAN_401_YA] 1.25, YASSNPEYLSASDVF [INSR_HUMAN_999] 0.536, FGMTRDVYETDAARK [INSRR_HUMAN_1141_YA] 0.912, DVYETDYYRKGGKGL [INSRR_HUMAN_1146] 0.691, SSEDLSAYASISFQK [IRS1_HUMAN_1229] 1.45, TLHTDDGYMPMSPGV [IRS1_HUMAN_612] 0.483, VPSSRGDYMTMQMSC [IRS1_HUMAN_989] 1.07, NLGADDGYMPMTPGA [IRS2_HUMAN_653] 0.506, MELQSPEYKLSKLRT [ALK_HUMAN_1078] 0.834

Enrichment score, active:
GFQNGLNYIAIDVRE [IRS2_HUMAN_1253] 3.54

These binders were tested against SHP2 N-SH2 domain T42A in the same assay as above. Conditions: peptide library: Human pTyr.

Enrichment score, inactive:
VKSGFEGYVELPPIE [IL3RB_HUMAN_766] 0.738, AFEIIDQYFSGDDID [IMA4_HUMAN_484] 1.06, TTEAPGEYFFSDGIR [IMDH2_HUMAN_400] 0.578, VFLRCINYVFFPSLK [INAR1_HUMAN_466] 2.97, DGGSDQNYDIVTIGA [INP4A_HUMAN_355] 0.723, FGMTRDIYETDAARK [INSR_HUMAN_1185_YA] 0.665, DIAETDAYRKGGKGL [INSR_HUMAN_1190_YA] 0.823, SLGFKRSYEEHIPAT [INSR_HUMAN_1355_YA] 0.663, ALKIRRSYALVSLSF [INSR_HUMAN_401_YA] 1.27, YASSNPEYLSASDVF [INSR_HUMAN_999] 0.446, FGMTRDVYETDAARK [INSRR_HUMAN_1141_YA] 0.714, DVYETDYYRKGGKGL [INSRR_HUMAN_1146] 0.815, SSEDLSAYASISFQK [IRS1_HUMAN_1229] 1.66, TLHTDDGYMPMSPGV [IRS1_HUMAN_612] 0.445, VPSSRGDYMTMQMSC [IRS1_HUMAN_989] 0.91, GFQNGLNYIAIDVRE [IRS2_HUMAN_1253] 1.76, NLGADDGYMPMTPGA [IRS2_HUMAN_653] 0.477, MELQSPEYKLSKLRT [ALK_HUMAN_1078] 0.861

These binders were tested against SHP2 N-SH2 domain T52S in the same assay as above. Conditions: peptide library: Human pTyr.

Enrichment score, inactive:
VKSGFEGYVELPPIE [IL3RB_HUMAN_766] 0.89, AFEIIDQYFSGDDID [IMA4_HUMAN_484] 1.16, TTEAPGEYFFSDGIR [IMDH2_HUMAN_400] 0.384, VFLRCINYVFFPSLK [INAR1_HUMAN_466] 2.91, DGGSDQNYDIVTIGA [INP4A_HUMAN_355] 0.946, FGMTRDIYETDAARK [INSR_HUMAN_1185_YA] 0.731, DIAETDAYRKGGKGL [INSR_HUMAN_1190_YA] 1.04, SLGFKRSYEEHIPAT [INSR_HUMAN_1355_YA] 0.89, ALKIRRSYALVSLSF [INSR_HUMAN_401_YA] 1.58, YASSNPEYLSASDVF [INSR_HUMAN_999] 0.5, FGMTRDVYETDAARK [INSRR_HUMAN_1141_YA] 0.828, DVYETDYYRKGGKGL [INSRR_HUMAN_1146] 0.74, SSEDLSAYASISFQK [IRS1_HUMAN_1229] 1.52, TLHTDDGYMPMSPGV [IRS1_HUMAN_612] 0.763, VPSSRGDYMTMQMSC [IRS1_HUMAN_989] 1.01, GFQNGLNYIAIDVRE [IRS2_HUMAN_1253] 2.23, NLGADDGYMPMTPGA [IRS2_HUMAN_653] 0.476, MELQSPEYKLSKLRT [ALK_HUMAN_1078] 0.748

The binders below were run against SHP2 N-SH2 domain wild-type in the same assay as above. Conditions: peptide library: Human pTyr.

Enrichment score, inactive:
VKSGFEGYVELPPIE [IL3RB_HUMAN_766] 0.835, AFEIIDQYFSGDDID [IMA4_HUMAN_484] 1.26, TTEAPGEYFFSDGIR [IMDH2_HUMAN_400] 0.429, VFLRCINYVFFPSLK [INAR1_HUMAN_466] 3.1, DGGSDQNYDIVTIGA [INP4A_HUMAN_355] 0.902, FGMTRDIYETDAARK [INSR_HUMAN_1185_YA] 0.74, DIAETDAYRKGGKGL [INSR_HUMAN_1190_YA] 0.827, SLGFKRSYEEHIPAT [INSR_HUMAN_1355_YA] 0.862, ALKIRRSYALVSLSF [INSR_HUMAN_401_YA] 1.45, YASSNPEYLSASDVF [INSR_HUMAN_999] 0.661, FGMTRDVYETDAARK [INSRR_HUMAN_1141_YA] 0.702, DVYETDYYRKGGKGL [INSRR_HUMAN_1146] 0.832, SSEDLSAYASISFQK [IRS1_HUMAN_1229] 1.29, TLHTDDGYMPMSPGV [IRS1_HUMAN_612] 0.515, VPSSRGDYMTMQMSC [IRS1_HUMAN_989] 1.04, GFQNGLNYIAIDVRE [IRS2_HUMAN_1253] 0.981, NLGADDGYMPMTPGA [IRS2_HUMAN_653] 0.422, MELQSPEYKLSKLRT [ALK_HUMAN_1078] 0.776
